Results reported in PubChem BioAssay AID1159614 (National Center for Advancing Translational Sciences (NCATS), 2016).
Screen size: about 45,000 compounds; about 65 (0.1%) were called active. The call rests on the fitted dose curve; in most records, active means well fitted activation curve with a large enough effect; inconclusive means small, poorly fitted or top-dose-only effect; inactive means no such curve, though single readings can be large or run the other way. This is one part of the list.

Biological target: Galactocerebrosidase (Homo sapiens) (UniProt P54803)
Test: A Novel Cell-Based Assay to Identify Small Molecules for B -Galactocerebrosidase; further: 0% is about no effect; nearly all actives have a fitted effect of over 65% in size
Conditions: 145M-Twi-hGALC-G270D cells (Twitcher mouse brain line with human GALC G270D), HMU-beta-Gal fluorescence, 48 h; series mostly up to 57.5 µM; activation: at the top concentration
Outline: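 Fluorogenic HMU-b-Gal hydrolysis (0.1 mM final, pH 5.2 citrate-phosphate with 1 mg/mL sodium taurocholate; carbonate stop buffer) measures mutant GALC activity after compound treatment of live 145M-Twi Twitcher brain cells stably carrying human GALC-G270D, with wild-type GALC line alongside; activation sought.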

UniProt P54803, sequence (P54803 whole entry, looked up): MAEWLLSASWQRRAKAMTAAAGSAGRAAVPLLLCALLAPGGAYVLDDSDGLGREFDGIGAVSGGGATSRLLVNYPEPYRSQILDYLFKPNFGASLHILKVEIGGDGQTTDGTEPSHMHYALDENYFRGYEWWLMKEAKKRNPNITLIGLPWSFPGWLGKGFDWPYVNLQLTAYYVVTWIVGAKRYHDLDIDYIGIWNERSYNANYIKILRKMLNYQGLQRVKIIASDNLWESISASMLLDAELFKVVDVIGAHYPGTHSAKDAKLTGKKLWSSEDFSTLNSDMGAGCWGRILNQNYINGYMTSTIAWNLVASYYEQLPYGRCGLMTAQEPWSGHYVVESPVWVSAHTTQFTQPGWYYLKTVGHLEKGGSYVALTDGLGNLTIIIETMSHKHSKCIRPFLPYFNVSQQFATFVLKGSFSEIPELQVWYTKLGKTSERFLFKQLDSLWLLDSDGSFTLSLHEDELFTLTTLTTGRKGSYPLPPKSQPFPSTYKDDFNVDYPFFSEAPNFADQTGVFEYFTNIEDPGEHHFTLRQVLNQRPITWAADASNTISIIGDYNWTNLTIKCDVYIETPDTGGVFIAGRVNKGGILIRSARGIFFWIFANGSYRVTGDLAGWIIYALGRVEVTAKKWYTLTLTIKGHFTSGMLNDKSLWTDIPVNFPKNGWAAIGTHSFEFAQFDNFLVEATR

activation, inactive:
CC(C)c1ccc(S(=O)(=O)c2cnc(SCC(=O)Nc3cccc(C(F)(F)F)c3)nc2N)cc1 -7.37%
COc1ccccc1-c1nnc(SCCOc2ccccc2C)o1 -21.6%
COc1ccc(N2CC(C(=O)Nc3ccc(NC(C)=O)cc3)CC2=O)cc1 (stereo not drawn) -5.74%
O=C(Nc1ccc2nc(SCCOc3ccccc3Cl)sc2c1)c1cccs1 -24%
COC(=O)c1sccc1S(=O)(=O)N1CCN(c2ccccc2OC)CC1 -3.49%
Cc1ccc(C)c(S(=O)(=O)c2nnn3c2nc(N2CCOCC2)c2sccc23)c1 -9.58%
COc1ccc(NC(=O)C2=C(C)Nc3nc(CCCO)nn3C2c2ccc(O)cc2)cc1 (stereo not drawn) -6.05%
COCCCNC(=O)C(=O)NCC(c1ccc2c(c1)OCO2)N1CCOCC1 (stereo not drawn) -8.05%
CCN1C(=O)c2ccccc2S(=O)c2ccc(C(=O)NCc3ccc(F)cc3)cc21 (stereo not drawn) -17.3%
CCOc1ccc(C(c2c(O)cc(C)n(CCOC)c2=O)N2CCN(c3ccccc3F)CC2)cc1 (stereo not drawn) -8.82%
CC(C)N(Cc1ccccc1)c1ncnc2c1nnn2C -15.8%
Cc1cc(C)c2oc(C(=O)Nc3sc4c(c3C(=O)NCc3ccco3)CCCC4)cc(=O)c2c1 2.64%
CC(=O)N(CC(=O)N(C)C)c1ccccc1 17.8%
Cc1ccc(N(C(=O)COc2ccccc2C)S(=O)(=O)c2ccc(Cl)cc2)cc1 -15.2%
O=C(NCc1cccnc1)c1nn(-c2ccccc2F)nc1CO 4.01%
Cc1ccc(CNC(=O)CCSCc2ccccc2F)cc1 -10%
CCc1cccc(NC(=O)CCc2c(C)nc3c(c2C)c(=O)n(C)c(=O)n3C)c1 -6.16%
CCOc1ccc(NC(=O)N2CCC(CN3CCc4ccccc4C3)CC2)cc1 -7.61%
COc1ccccc1NC(=O)Cn1c(=O)n(-c2ccc(C)cc2)c(=O)c2ccc(C(=O)NCc3ccco3)cc21 -11.9%
COc1ccccc1N1CCN(c2ccc(=O)n(CC(=O)Nc3ccc(F)c(F)c3)n2)CC1 -17.6%
Cc1c(NC(=O)c2ccc(Cl)cc2)cc(C(C)C)c(O)c1S(=O)(=O)c1ccc(Cl)cc1 -8.89%
CCOCCCNC(=O)c1ccc(NC(=O)N2CCCCc3ccccc32)cc1 -6.97%
Cc1ccc(Nc2c(-c3cc(Br)ccc3F)nc3cc(C)ccn23)cc1 -19.1%
Cc1ccc(NC(=O)c2cccc(N3CCCS3(=O)=O)c2)cc1 -11.8%
O=C(NCc1ccc(Cl)cc1)C1CCCN(C(=O)c2cnn(-c3ccc(F)cc3)c2-n2cccc2)C1 (stereo not drawn) -9.04%
CCC(=O)N1CCc2cc(CNC(=O)C(CC)c3ccccc3)ccc21 (stereo not drawn) -14.1%
Cc1ccc(C)c(Nc2cc(C(=O)NC3CCCCC3)c3ccccc3n2)c1 -5.71%
O=C(CCn1c(=O)c2cccn2c2ccc(F)cc21)NCCc1ccccc1 14.3%
